This note sets out measurements from paper PMC8943206.

Amino acid sequences for entries named in this document (tags omitted).
UniProt Q15366: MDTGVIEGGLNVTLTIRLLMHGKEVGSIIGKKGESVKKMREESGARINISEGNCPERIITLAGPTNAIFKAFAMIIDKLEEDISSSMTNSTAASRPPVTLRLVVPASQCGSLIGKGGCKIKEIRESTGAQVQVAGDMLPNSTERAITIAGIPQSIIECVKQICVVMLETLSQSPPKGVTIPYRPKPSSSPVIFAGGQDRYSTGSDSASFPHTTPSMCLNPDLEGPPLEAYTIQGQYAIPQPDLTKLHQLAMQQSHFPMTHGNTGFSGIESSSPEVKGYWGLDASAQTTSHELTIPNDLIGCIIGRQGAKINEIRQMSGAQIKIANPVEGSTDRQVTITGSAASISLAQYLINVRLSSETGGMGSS

In assay [1] the target is PCBP2 full-length (FL), transfected in HEK293T (tag not told) (human) (UniProt Q15366). The experiment in a line: co-IP.
The target in assay [2] is PCBP2, endogenous in THP-1 (human (endogenous in THP-1)) (UniProt Q15366). The experiment in a line: co-IP; endogenous; THP-1 cells with or without HT-DNA (2 μg/ml); PCBP2 antibody or control IgG, protein A/G beads; immunoblot.

These are yes or no findings as the source states them, for the method shown. Binding seen in cells or lysates may run through a third protein.

B1: IRF3, transfected in HEK293T (protein, UniProt Q14653 1-427)
chain: MGTPKPRILPWLVSQLDLGQLEGVAWVNKSRTRFRIPWKHGLRQDAQQEDFGIFQAWAEATGAYVPGRDKPDLPTWKRNFRSALNRKEGLRLAEDRSKDPHDPHKIYEFVNSGVGDFSQPDTSPDTNGGGSTSDTQEDILDELLGNMVLAPLPDPGPPSLAVAPEPCPQPLRSPSLDNPTPFPNLGPSENPLKRLLVPGEEWEFEVTAFYRGRQVFQQTISCPEGLRLVGSEVGDRTLPGWPVTLPDPGMSLTDRGVMSYVRHVLSCLGGGLALWRAGQWLWAQRLGHCHTYWAVSEELLPNSGHGPDGEVPKDKEGGVFDLGPFIVDLITFTEGSGRSPRYALWFCVGESWPQDQPWTKRLVMVKVVPTCLRALVEMARVGGASSLENTVDLHISNSHPLSLTSDQYKAYLQDLVEGMDFQGPGES
In the case of B1, the binding result in assay [1] is recorded as “no binding”.

B2: IRF3, endogenous in THP-1 (protein, UniProt Q14653 1-427)
chain: B1 chain
For the molecule B2, the binding result in assay [2] was “no binding”.

B3: TBK1, transfected in HEK293T (enzyme, UniProt Q9UHD2 1-729)
chain: MQSTSNHLWLLSDILGQGATANVFRGRHKKTGDLFAIKVFNNISFLRPVDVQMREFEVLKKLNHKNIVKLFAIEEETTTRHKVLIMEFCPCGSLYTVLEEPSNAYGLPESEFLIVLRDVVGGMNHLRENGIVHRDIKPGNIMRVIGEDGQSVYKLTDFGAARELEDDEQFVSLYGTEEYLHPDMYERAVLRKDHQKKYGATVDLWSIGVTFYHAATGSLPFRPFEGPRRNKEVMYKIITGKPSGAISGVQKAENGPIDWSGDMPVSCSLSRGLQVLLTPVLANILEADQEKCWGFDQFFAETSDILHRMVIHVFSLQQMTAHKIYIHSYNTATIFHELVYKQTKIISSNQELIYEGRRLVLEPGRLAQHFPKTTEENPIFVVSREPLNTIGLIYEKISLPKVHPRYDLDGDASMAKAITGVVCYACRIASTLLLYQELMRKGIRWLIELIKDDYNETVHKKTEVVITLDFCIRNIEKTVKVYEKLMKINLEAAELGEISDIHTKLLRLSSSQGTIETSLQDIDSRLSPGGSLADAWAHQEGTHPKDRNVEKLQVLLNCMTEIYYQFKKDKAERRLAYNEEQIHKFDKQKLYYHATKAMTHFTDECVKKYEAFLNKSEEWIRKMLHLRKQLLSLTNQCFDIEEEVSKYQEYTNELQETLPQKMFTASSGIKHTMTPIYPSSNTLVEMTLGMKKLKEEMEGVVKELAENNHILERFGSLTMDGGLRNVDCL
For the molecule B3, the binding entry in assay [1] is on record as “no binding”.

B4: TBK1, endogenous in THP-1 (enzyme, UniProt Q9UHD2 1-729)
chain: B3 chain
With B4, the binding entry in assay [2] is recorded as “no binding”.
